Assay results from PubChem BioAssay AID686971 (National Center for Advancing Translational Sciences (NCATS), 2013).
Out of some 360,000 compounds screened, about 7,500 (2.1%) were called active. The inconclusive results got no clear call from the source; some entries with a clear call stand among them for comparison. The call rests on the fitted dose curve; in most records, active means well fitted cell-killing curve with a large enough effect; inconclusive means small, poorly fitted or top-dose-only effect, or effect the other way, or another doubt; inactive means no such curve, though single readings can be large or run the other way. No potency is given beside an inconclusive call; the fits are too rough.

Assay: qHTS for induction of synthetic lethality in tumor cells producing 2HG: qHTS for the HT-1080-IDH1KD cell line;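 on activity, negative = toxicity: 0% = DMSO wells and -100% = cell-free medium wells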
Conditions: HT-1080 IDH1 knockdown viability, ATP luminescence, 48 h; activity, negative = toxicity: at 46.1 µM (top of the series) unless noted
Outline: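 Viability of IDH1-knockdown HT-1080 fibrosarcoma cells was assessed by CellTiter-Glo after 48 h at 37 °C with titrated compound; concentration-effect curves were classified by fit quality and response size.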
Potency means the concentration at half of the fitted maximal effect; tags describe the fitted curve by direction and shape.

| SMILES | Potency | activity, negative = toxicity |
| --- | --- | --- |
| CC1CCCN(S(=O)(=O)c2ccc(C(=O)Nc3nnc(C4CC4)o3)cc2)C1 (stereo not drawn) | inconclusive [cytotoxic, partial curve] |  |
| CCN1CCN(C(=S)NC(=O)c2cc(OC)c(OC)c(OC)c2)CC1 |  | inactive: 5% |
| Cc1ccc2occ(/C=N/NC(=O)c3ccccc3C)c(=O)c2c1 | inconclusive [cytotoxic, single point] |  |
| CN(c1ccc(Cl)cc1)c1cc(=O)n(C)c2ccccc12 | inconclusive [cytotoxic, single point] |  |
| Cc1cc2ccc3ccccc3c2cc1CN(C)C | active: 18.4 µM |  |
| CCN(CC)c1nc2ccccc2c(N)c1-c1ccccc1 | inconclusive [cytotoxic, single point] |  |
| O=C(CSc1nnnn1C1CCCCC1)NCCc1ccccc1 |  | inconclusive: 38.9% |
| O=C(Nc1ccc2c(c1)OCCO2)C1c2ccccc2OCC(=O)N1Cc1ccccc1 (stereo not drawn) |  | inactive: -10.9% |
| CC(=O)N1CCN(c2ccc(NC(=O)c3ccc(C)cc3)cc2)CC1 |  | inactive: 8.33% |
| COc1ccc(S(=O)(=O)N2CCC(Nc3ccccc3Cl)CC2)cc1 |  | inactive: 1.64% |
| Cc1cc(=O)oc2cc(OCC(=O)NC3CCCCC3)c(Cl)cc12 |  | inactive: 25.6% |
| Cc1ccccc1-c1nc(CN2CCCC(C(=O)NCCCN3CCOCC3)C2)c(C)o1 (stereo not drawn) |  | inactive: -2.05% |
| Cc1cc(NC(c2cccnc2)c2ccc3cccnc3c2O)no1 (stereo not drawn) | inconclusive [cytotoxic, partial curve] |  |
| CCOC(=O)Cc1[nH]nc2c1C(C1C=CCCC1)C(C#N)=C(N)O2 (stereo not drawn) | active: 20.6 µM |  |
| Cc1cc(C)n(C(=O)CCN2C(=O)c3ccccc3C2=O)n1 | inconclusive [rising, partial curve] |  |
| COCCCN(Cc1ccco1)C(=O)CSc1nc2ncccc2[nH]1 |  | inactive: 4.91% |
| Cc1cc(NC(=O)CCC(=O)N(c2ccccc2)C(C(=O)NCC2CCCO2)c2cccnc2)no1 (stereo not drawn) |  | inactive: 3% |
| Cc1ccc(O)c(C(=O)CC(=O)c2ccccc2Cl)c1 | active: 11.6 µM |  |
| COc1ccc(-c2nnc(SC(=O)N3c4ccccc4Sc4ccccc43)o2)cc1 | active: 11.2 µM |  |
| Cc1nc(NNC(=O)c2ccc(Cl)cc2Cl)cc(-c2ccccc2)n1 | inconclusive [cytotoxic, single point] |  |
| CCCn1nc(C(=O)Nc2nc(-c3ccccn3)cs2)c2ccccc2c1=O | inconclusive [cytotoxic, partial curve] |  |
| Cc1cc(NC2CCCCC2)nc(NCc2ccccc2)n1 | inconclusive [cytotoxic, single point] |  |
| CCOC(=O)c1nc(Nc2cccc(C)c2)c2ccccc2n1 |  | inactive: -10.8% |
| CCCCC(=O)Nc1ccc(C(=O)NNC(=O)c2ccc(C)c(Br)c2)cc1 | inconclusive [cytotoxic, partial curve] |  |

| SMILES | Potency | activity, negative = toxicity |
| --- | --- | --- |
| COc1cc(CN(CCN(C)C)Cc2ccccc2)ccc1OCc1ccccc1 | active: 20.6 µM |  |
| COC(=O)CNC(c1ccccc1)c1cc(C)ccc1NC(=O)CNC(=O)OCc1ccccc1 (stereo not drawn) | inconclusive [cytotoxic, single point] |  |
| O=C1C(=O)N(Cc2cccs2)c2ccccc21 | inconclusive [cytotoxic, single point] |  |
| O=C(Nc1cccnc1)C1Cc2c(-c3ccc4c(c3)OCO4)ccnc2O1 (stereo not drawn) | inconclusive [cytotoxic, single point] |  |
| CC(=NNC(=S)N1CCCC1)c1ccccn1 | inconclusive [cytotoxic, full curve, poor fit] |  |
| CC(=O)Nc1cccc(-c2ccnc3c2CC(C(=O)Nc2cccc(Oc4ccccc4)c2)O3)c1 (stereo not drawn) | inconclusive [cytotoxic, single point] |  |
| CCN1/C(=C/c2ccc3ccc(C)cc3[n+]2CC)Sc2ccccc21 | active: 20.6 µM |  |
| CCOC(=O)c1c(C)nn(-c2ccc(NC(=O)c3cccs3)cc2)c1C | inconclusive [cytotoxic, single point] |  |
| c1ccc(Nc2nc(-c3ccccc3)c(-c3ccccc3)s2)cc1 | inconclusive [cytotoxic, single point] |  |
| Cc1[nH]nc2c1C(c1cccs1)C(C#N)=C(N)O2 (stereo not drawn) | inconclusive [cytotoxic, single point] |  |
| COc1cc2[nH]c(=S)nc(NCc3ccc(Cl)cc3)c2cc1OC |  | inactive: -1.58% |
| Cc1ccc(NC2=NC(c3ccc(F)cc3)n3c(nc(C)cc3=O)N2)cc1 (stereo not drawn) |  | inactive: 4.91% |
| O=Cc1cccc(Oc2ccc([N+](=O)[O-])cc2[N+](=O)[O-])c1 | inconclusive [cytotoxic, single point] |  |
| COc1cc(-c2cc3nc(NCc4cccs4)ccn3n2)cc(OC)c1OC | inconclusive [cytotoxic, partial curve, poor fit] |  |
| COC(=O)NC(=S)Nc1ccc(Oc2ccc(Cl)cc2Cl)c(Cl)c1 | active: 20.6 µM |  |
| CCCSc1cc(NCCOC(=O)CCC)c([N+](=O)[O-])c2nonc12 | inconclusive [cytotoxic, single point] |  |
| Cc1ccc(NC(=O)CSCC(=O)OC(C)C(=O)Nc2ccccc2C)cc1 (stereo not drawn) |  | inactive: 2.82% |
| CCn1cc(CN2CCCC(CO)(Cc3ccc(F)cc3)C2)c2ccccc21 (stereo not drawn) | active: 18.4 µM |  |
| COc1ccccc1C(=O)Nc1nc2ccccc2s1 | active: 20.6 µM |  |
| CC1=C(C(=O)O)N2C(=O)C(NC(=O)c3ccn(C)n3)C2SC1 (stereo not drawn) | inconclusive [cytotoxic, single point] |  |
| Cc1ccc(Cn2c(C(=O)NCCCN3CCOCC3)cc3sccc32)cc1 | inconclusive [cytotoxic, partial curve] |  |
| CC/C(=C\c1ccc(N(C)C)cc1)c1ccncc1 | inconclusive [cytotoxic, single point] |  |
| COc1ccc(Nc2nnc(SC(C(=O)Nc3cc(C)ccc3C)c3ccccc3)s2)cc1 (stereo not drawn) |  | inactive: -1.21% |
| CC(/C=N/NC(=O)c1cc(C(C)(C)C)[nH]n1)=C\c1ccccc1 | inconclusive [cytotoxic, partial curve] |  |
